Experimental findings from article PMC12329532 (2025) are described below.

Common to all, as to assay: FP
For one assay, the target named is TC-GAPDH D141R, purified (human, UniProt P04406 1-335, D141R).
The next assay addresses TC-GAPDH E138R, purified (human, UniProt P04406 1-335, E138R).
The target of assay [1] is human recombinant TC-GAPDH (GAPDH with a tetra-Cys insertion sequence near its heme binding site), wild type, … (human, UniProt P04406 1-335).
Assay [2] has as its target TC-GAPDH E138R + D141R, purified (human, UniProt P04406 1-335, E138R | D141R).

Chain of UniProt P04406 (P04406 2-335): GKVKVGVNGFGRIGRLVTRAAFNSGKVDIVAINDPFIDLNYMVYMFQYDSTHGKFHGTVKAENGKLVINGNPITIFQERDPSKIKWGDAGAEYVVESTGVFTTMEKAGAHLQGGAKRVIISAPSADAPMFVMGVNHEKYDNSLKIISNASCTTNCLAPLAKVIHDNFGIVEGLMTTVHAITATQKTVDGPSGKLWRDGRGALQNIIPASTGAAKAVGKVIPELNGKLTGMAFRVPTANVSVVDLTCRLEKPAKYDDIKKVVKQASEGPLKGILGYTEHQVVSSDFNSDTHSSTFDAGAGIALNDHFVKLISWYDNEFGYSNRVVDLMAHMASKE

B1: N-terminally His6-tagged human IDO1 (indoleamine 2,3-dioxygenase 1), purified apo-IDO1 (enzyme)
chain: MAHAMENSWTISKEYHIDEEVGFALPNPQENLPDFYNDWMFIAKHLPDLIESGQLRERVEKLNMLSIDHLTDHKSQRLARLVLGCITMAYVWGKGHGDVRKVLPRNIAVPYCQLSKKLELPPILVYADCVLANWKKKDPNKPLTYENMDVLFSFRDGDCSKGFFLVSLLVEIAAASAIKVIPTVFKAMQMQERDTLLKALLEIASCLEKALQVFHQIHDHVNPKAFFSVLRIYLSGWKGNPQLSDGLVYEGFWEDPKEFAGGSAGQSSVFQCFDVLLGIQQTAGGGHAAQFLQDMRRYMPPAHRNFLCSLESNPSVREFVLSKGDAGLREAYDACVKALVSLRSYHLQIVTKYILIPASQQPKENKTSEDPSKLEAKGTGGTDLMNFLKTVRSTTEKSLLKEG
modifications: Alexa Fluor 488 on Cys groups (in the fluorescence polarisation assay only)
Take B1: the Kd with TC-GAPDH D141R, purified is 3.45 µM; with TC-GAPDH E138R, purified, 1.66 µM; in assay [1], 1.79 µM; in assay [2], 3.39 µM.
